Experimental data from PubChem BioAssay AID1347073 (National Center for Advancing Translational Sciences (NCATS), 2019).
About 200 (0.44%) of roughly 45,000 compounds were called active. Roughly 7% stayed inconclusive and do not appear here. Calls follow the shape of the dose curve; as a rule, active = well fitted activation curve with a large enough effect; inconclusive = small, poorly fitted or top-dose-only effect; inactive = no such curve, though single readings can be large or run the other way. The list shows a part of the results.

assay: qHTS of TDP-43 Inhibitors: NCGC Sytravon Library Screen; conditions: yeast TDP-43 toxicity rescue, BacTiter-Glo growth, 24 h; series mostly up to 46.1 µM; growth rescue (activation): at the top concentration; also: 0% is about no effect; nearly all actives have a fitted effect of over 55% in size
In short: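 TDP-43-expressing yeast, pregrown in raffinose, seeded at OD600 0.02 in galactose medium with compound for 24 hr at 30 deg C. Growth read by BacTiter-Glo luminescence, so rescue of toxicity appears as activation.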

Structure (SMILES) | growth rescue (activation)
Cc1ccc(C2=Nc3ccccc3N=C(c3ccc([N+](=O)[O-])cc3)C2)c(O)c1 | inactive: 4.95%
COc1ccccc1C(C#N)N1N=C(C)CC1(C)C (centres undefined) | inactive: 3.29%
COc1ccc(C2C(C(=O)c3ccco3)=C(O)C(=O)N2CC2CCCO2)c(OC)c1 (centres undefined) | inactive: -5.56%
COc1ccc(NS(=O)(=O)c2ccc(NS(=O)(=O)c3cccs3)cc2)c(OC)c1 | inactive: 7.7%
O=[N+]([O-])c1cccc(/C=N/N2CCN(Cc3ccc(Cl)cc3)CC2)c1 | inactive: 3.89%
COc1ccccc1C(=O)NC1CCN(C(=O)Nc2ccc(C)cc2)CC1 | inactive: 7.6%
CCn1c(SCC(=O)N2CCc3ccccc3C2)nc2sc(C)c(C)c2c1=O | inactive: 2.91%
Cc1c(C(=O)Oc2ccc(F)cc2)sc2ncn(Cc3cccc(F)c3)c(=O)c12 | inactive: 8.89%
CC(C)(C)NC(=O)C1CC(=O)OC12CCCCC2 (centres undefined) | inactive: 8.25%
CC(=O)Nc1ccc(NC(=O)C2(C)Cc3c(-c4cccc(C(F)(F)F)c4)ccnc3O2)cc1 (centres undefined) | inactive: 8.8%
C=CCOc1cccn2c(N(C)C(=O)c3ccc(OC)cc3)c(CC)nc12 | inactive: 4.1%
COc1ccc2c(c1)c(C(=O)N/N=C/c1ccc(Cl)cc1)c(C)n2C | inactive: -0.612%
Cc1cc(C(=O)NNC(=O)c2ccc(Cl)c(S(N)(=O)=O)c2)c(C)o1 | inactive: 10.5%
COc1ccc(CCNC(=O)CSc2nc(C)cs2)cc1 | inactive: -2.7%
CCOc1ccc(NC(=O)NCc2cccn2C)cc1 | inactive: -10%
O=C(COC(=O)CCC(=O)c1cccs1)NCc1cccs1 | inactive: 8.96%
CCOC(=O)C1(C)CCN1C(=O)c1cccc(C#N)c1 (centres undefined) | inactive: -5.44%
CCOC(=O)c1sc(NC(=O)c2ccc(Br)o2)cc1C | inactive: 26.2%
CCCn1c(CCl)nc2cc(S(=O)(=O)N3CCOCC3)ccc21 | inactive: -1.6%
CCOC(=O)N1CCN(C(=O)c2c(-c3ccccc3Cl)noc2C)CC1 | inactive: -12.8%
CN(C)C(CNC(=O)C1CCN(S(=O)(=O)c2cccc(C(F)(F)F)c2)CC1)c1ccccc1 (centres undefined) | inactive: -0.659%
CCOC(=O)C1(C)CCCN(C(=O)c2ccc(OC)cc2)C1 (centres undefined) | inactive: 1.97%
COc1ccc(-c2cc(CNS(=O)(=O)c3ccc(F)cc3)on2)cc1 | inactive: 19.3%
O=C(O)c1ccc(CN2C[C@@H](CO)O[C@@H](n3cnc4c(N5CCOCC5)ncnc43)C2)cc1 | inactive: -3.35%
CCOc1cccc(C2NC(=S)NC(C)=C2C(=O)Nc2ccccc2)c1 (centres undefined) | inactive: 18.6%
O=C(COc1cccc2cccnc12)N/N=C/c1ccccc1O | inactive: 13.3%
CCn1nc(C)c(CN2CCc3c([nH]c4ccccc34)C2c2ccc(F)c(OC)c2)c1C (centres undefined) | inactive: 14.7%
CCn1c(SCC(=O)c2ccccc2)nc2sc3c(c2c1=O)CCN(C)C3 | inactive: 6.07%
COC(=O)c1ccc(/C=N/NC(=O)C2CC(=O)N(c3ccc(OC)cc3)C2)cc1 (centres undefined) | inactive: -3.28%
